Results taken from paper PMC13613228 (Journal of Biochemistry, 2026).

B1: human HRI lacking the C-terminal coiled-coil ([…]), phosphorylated form (domain or fragment)
chain: not shown
modifications: phosphorylated form (HRI expressed in E. coli is extensively phosphorylated); sites not mapped in this paper
B2: human HRI N-terminal domain ([…]) (domain or fragment)
chain: not shown
B3: dephosphorylated human HRI lacking the C-terminal coiled-coil ([…]) (domain or fragment)
chain: not shown

Target: the molecule itself
Test: AUC

Stoichiometry N, 2:
B1
B2
B3
